Measurements as given in publication PMC4336329 (PLoS ONE, 2015).
Among all 310,000 compounds or so, about 14,000 (4.5%) showed an effect of 50% or more. Effects have a minus sign here. This is one part of the list.

Molecular target: human ether-à-go-go-related gene (hERG) potassium channel (human, UniProt Q12809)
Experiment: primary screen, population patch clamp on CHO cells stably expressing hERG
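Note: peak tail current of the secondary pulse compared with the same well before compound.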

human ether-à-go-go-related gene (hERG) potassium channel, sequence (Q12809 whole entry, looked up): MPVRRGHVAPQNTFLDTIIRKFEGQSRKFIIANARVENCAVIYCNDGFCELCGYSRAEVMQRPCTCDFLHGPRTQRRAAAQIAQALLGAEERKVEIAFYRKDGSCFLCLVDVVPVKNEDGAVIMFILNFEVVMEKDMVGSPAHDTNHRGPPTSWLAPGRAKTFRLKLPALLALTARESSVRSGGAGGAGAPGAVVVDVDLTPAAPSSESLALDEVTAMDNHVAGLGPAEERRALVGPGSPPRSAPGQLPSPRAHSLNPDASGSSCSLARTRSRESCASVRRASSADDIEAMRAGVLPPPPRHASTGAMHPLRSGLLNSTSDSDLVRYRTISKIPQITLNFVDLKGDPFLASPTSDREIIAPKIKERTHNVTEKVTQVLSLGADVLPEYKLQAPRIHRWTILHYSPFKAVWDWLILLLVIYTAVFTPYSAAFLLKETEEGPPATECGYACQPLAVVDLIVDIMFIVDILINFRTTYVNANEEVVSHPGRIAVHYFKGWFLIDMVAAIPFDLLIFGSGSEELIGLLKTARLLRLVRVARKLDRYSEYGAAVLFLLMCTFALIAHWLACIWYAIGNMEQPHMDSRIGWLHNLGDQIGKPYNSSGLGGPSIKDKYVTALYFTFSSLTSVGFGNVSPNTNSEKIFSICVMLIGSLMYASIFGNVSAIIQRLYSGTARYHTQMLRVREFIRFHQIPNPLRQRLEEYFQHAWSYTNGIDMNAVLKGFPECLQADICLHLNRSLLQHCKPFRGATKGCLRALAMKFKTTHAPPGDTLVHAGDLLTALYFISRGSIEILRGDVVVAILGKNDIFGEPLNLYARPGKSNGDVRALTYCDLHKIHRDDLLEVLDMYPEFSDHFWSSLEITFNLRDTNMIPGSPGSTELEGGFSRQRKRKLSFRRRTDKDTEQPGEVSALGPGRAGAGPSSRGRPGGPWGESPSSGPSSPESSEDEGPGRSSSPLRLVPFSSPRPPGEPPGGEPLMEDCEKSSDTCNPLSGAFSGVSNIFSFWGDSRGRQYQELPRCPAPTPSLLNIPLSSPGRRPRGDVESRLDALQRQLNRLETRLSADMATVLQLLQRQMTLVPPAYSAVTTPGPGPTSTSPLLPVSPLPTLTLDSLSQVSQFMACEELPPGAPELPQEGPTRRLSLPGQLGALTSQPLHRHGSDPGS

SMILES | hERG current change (%, negative = inhibition) at 10uM [%]
COC(=O)c1ccc(COC(=O)c2ccccn2)cc1 | 7.56
CC(C)(C)c1ccc(C(=O)NC(=S)NCC2CCCO2)cc1 (stereo not drawn) | -10.2
Cc1ccc(NC(=O)CSc2ncccn2)cc1F | -26.4
O=[N+]([O-])c1cc2c(cc1CN1CCN(c3ccccc3)CC1)OCO2 | 9.45
Cc1ccccc1OCC(=O)NC(=S)Nc1cccc2cc(O)ccc12 | 13.8
CCOC(=O)N1CCN(C(=O)C(CC(C)C)NC(=O)C2CCCCC2)CC1 (stereo not drawn) | 10.8
Cc1ccc(NC(=O)CCN2CCCCC2)cc1.Cl | -0.243
Cc1cccc(-c2csc(N)c2C(=O)OC(C)C)c1 | -4.35
COc1ccccc1N(C(=O)CNC(=O)c1ccco1)C(C(=O)NC1CCCC1)c1ccncc1 (stereo not drawn) | 8.02
Cc1ccc(O)c(N=Cc2sc3ccccc3c2Cl)c1 | 12
CCN(CC)C(=O)CC1(c2ccccc2OC)CCOC(C(C)C)C1 (stereo not drawn) | -7.16
COc1ccc(N2C(=O)CSC2c2cccc(OC)c2OC)cc1 (stereo not drawn) | 0.678
CS(=O)(=O)c1ccc(Cl)c(NC(=O)COC(=O)CNC(=O)c2ccc3ccccc3c2)c1 | -2.54
COC(=O)c1sccc1NC(=O)COc1ccc(Cl)cc1 | 4.06
Cc1cccc(NC(=O)c2cc3c(=O)n4ccccc4nc3s2)c1 | 10.8
O=C(Cc1ccccc1)Nc1ccc(NC(=O)c2cccs2)cc1Cl | -32.6
CC(=O)NC(NC(=S)N1CCCCCC1)C(Cl)(Cl)Cl (stereo not drawn) | 4.06
CCC(C)(C)NC(=O)C(c1ccc(OC)cc1)N(Cc1ccccc1)C(=O)CCC(=O)Nc1cc(C)on1 (stereo not drawn) | -8.73
Cc1ccc(CNC(=O)C2CCN(S(=O)(=O)N3CCC4(CC3)OCCO4)CC2)cc1 | 0.58
CC(NC(=O)c1cc(S(=O)(=O)N2CCCC2)cn1C)c1ccccc1 (stereo not drawn) | -0.137
CCC(C)C(=O)Nn1c(C2CC2)nc2cc(OC)c(OC)cc2c1=O (stereo not drawn) | 21.8
O=c1cc(-c2cccc3ccccc23)[nH][nH]1 | 16.8

SMILES | hERG current change (%, negative = inhibition) at 10uM [%]
Cc1cc(C)n(CC(=O)N2c3ccccc3Sc3ccccc32)n1 | -8.45
C#CCOCCOCCOCCNc1nc(N2CCN(C(=O)[C@H](CCCC[NH3+])n3cc(CCCC)nn3)CC2)nc(N2CCN(C(=O)[C@H](CCCC[NH3+])n3cc(CCCC)nn3)CC2)n1.[Cl-] | 12.2
Cc1nc2ccccc2n1CCC(=O)O.Cl | -20.3
Cc1ccccc1-n1nc2c(c1NC(=O)c1cc3ccccc3o1)CS(=O)(=O)C2 | -12.9
CC(=O)Nc1ccc(NC(=O)c2sc3nc4n(c(=O)c3c2C)CCCCC4)cc1 | -5.6
CCCCOP(=O)(OCCCC)C(O)c1ccc(N(C)C)cc1 (stereo not drawn) | 11.4
O=C(CCn1cccc1)Nc1ccc(OC(F)(F)F)cc1 | 2.32
Clc1ccc(N2CCOCC2)nn1 | 8
CCN(CC)CCCN(Cc1cc2cc3c(cc2[nH]c1=O)OCO3)C(=S)NCCOC | 5.4
Cc1cc2nsnc2c(S(=O)(=O)N2CCN(C)CC2)c1C | 1.16
CCOc1ccc(OCC)c(NS(=O)(=O)c2cccc3nsnc23)c1 | -2.88
CCOc1ccc(NC(=S)NC23CN4CN(CN(C4)C2)C3)cc1 | 36.9
COc1ccccc1OCCNC(=O)Nc1ccc(Br)cc1 | -3.76
COc1ccc(CN2CCC(=O)N([C@H](CO)c3ccccc3)CC2)cc1OC | 8.68
CC(C)(C)c1ccc(Oc2cccc(C3CC(=O)C(C4NCCc5ccccc54)C(=O)C3n3cncn3)c2)cc1 (stereo not drawn) | 1.29
O=C(Nc1ccccc1)[C@@H]1CC=C[C@@H]2CCN(Cc3ccc(Cl)c(Cl)c3)C(=O)[C@@H]21 | -4.46
Cc1cccc(CSc2ncc(CO)n2C)c1 | 3.46
Nc1c(C(=O)N/N=C/c2ccc([N+](=O)[O-])cc2)cnn1-c1ccccc1 | 13.6
O=C1/C(=C/c2ccccn2)SC(=S)N1CCc1ccccc1 | 13.4
CCN(CC)c1ccc(N=Cc2c(O)n(-c3ccc(Cl)cc3)c(=O)[nH]c2=O)cc1 | 14.5
CCCOC(=O)c1c(NC(=O)CCCn2nc([N+](=O)[O-])cc2C)sc(C(=O)OC)c1C | 1.32
COc1cc2c(cc1OC)C(CCc1ccccc1)=NCC2 | -48.1

SMILES | hERG current change (%, negative = inhibition) at 10uM [%]
Cc1ccc(CCNC(=O)CNC(=S)N(Cc2ccccc2)Cc2cccnc2)cc1 | -55
CC(C)CCNC(=O)COc1ccc(N(C)S(=O)(=O)c2ccc(F)cc2)cc1 | -35.1
O=C1COc2ccc(C(=O)COC(=O)Cc3ccccc3F)cc2N1 | -20.1
O=C(COc1ccc(C(=O)NCC2CCCO2)cc1)Nc1cccc(C(F)(F)F)c1 (stereo not drawn) | -0.481
Cc1ccc(C(=O)N2NC(c3ccc(F)cc3)C3C(=O)N(c4ccc(C)cc4)C(=O)C32)cc1 (stereo not drawn) | -0.588
Cc1ccc(SCCC(=O)NC(C)C)cc1 | 20.4
CC(CN(C)Cc1ccccc1)OC(=O)c1ccc2c(c1)OCCO2.Cl (stereo not drawn) | 5.15
Cc1nn(C)c(C(=O)Nc2ccc(Cl)c([N+](=O)[O-])c2)c1Cl | 19.2
O=C(c1cccs1)N1CCCN(c2ncnc3scc(-c4ccccc4)c23)CC1 | -60.7
CCN(CC)c1ccc(/C=N/NC(=S)NCc2ccco2)cc1 | 10.9
COc1ccc(CCNC(=O)c2ccc(CNc3c(N4CCOCC4)c(=O)c3=O)cc2)cc1OC | 4.75
COC(=O)C1=NN(c2ccccc2OC)C2C(=O)N(c3ccccc3OC)C(=O)C12 (stereo not drawn) | 9.21
COc1ccc(-c2nnc(NC(=O)C3CC3)o2)cc1 | -24
Cc1ccc(NC(=O)CCN2C(=O)c3ccccc3C2=O)cc1C | 4.19
O=C(CSc1nnc2ccc(-c3ccncc3)nn12)N1CCCCC1 | -1.5
COc1ccccc1N1CCN(C2CCCN(C(=O)CCc3cnn(C)c3)C2)CC1 (stereo not drawn) | -2.81
COc1ccc(-c2ccc3c(N)c(C(=O)NC(C)C)sc3n2)cc1OC | -9.01
CCOC(=O)N1CCC(N2Cc3cccc(C(=O)NCc4ccc(OC)cc4)c3C2=O)CC1 | -40
CCOCCn1c(-c2ccc(OC)cc2)nc2ccccc21 | -33.2
Cl.OCCNCc1cc(Br)ccc1OCc1ccccc1 | -55.7
CC(C)CCSc1nnc(Cn2c(=O)sc3ccccc32)n1C | -9.01
O=C(CSc1nc(O)cc(=O)n1-c1ccccc1)c1ccc(Br)cc1 | 14.3

SMILES | hERG current change (%, negative = inhibition) at 10uM [%]
Cc1ccc(NC(=O)NCc2nc3ccccc3n2C)cc1 | 7.06
CCC(C)[C@H](NC(=O)NCc1ccccc1Cl)C(=O)OC (stereo partly drawn) | 12
CCN(CC)CCNC(=O)CSc1c2c(nc3cc(Cl)ccc13)CCCC2 | -64.1
CCOC(=O)c1cc2c(ccn2C)n1CC(=O)Nc1ccc(F)cc1 | 6.01
Cc1nn(Cc2ccc(Cl)cc2Cl)c(Cl)c1C(=O)O | 2.57
COCCNC(=S)N1CCC(c2nc(-c3ccc(N(C)C)cc3)no2)CC1 | -12.9
Cc1cn2c(-c3ccncc3)nnc2s1 | 7.96
c1ccc(COc2cncc(-c3cccnc3)c2)cc1 | -17.8
CC(=O)Nc1ccc(S(=O)(=O)N2CCC(C(=O)NCCC(=O)NCc3ccncc3)CC2)cc1 | 9.11
CC(=O)Nc1ccc(S[C@@H](CCN2CC[C@H](O)CCC2=O)c2ccccc2)cc1 | 19.6
COc1ccc(NC(=O)CSc2nnc(CCC(=O)Nc3ccc(C)c(Cl)c3)n2C)cc1 | -16.4
CC(=O)c1c(C)[nH]c(C(=O)OCC(=O)Nc2cc(C(F)(F)F)ccc2N2CCOCC2)c1C | -56.1
O=C(NCCCN1CCOCC1)c1cccc(S(=O)(=O)Nc2ccc(F)cc2)c1 | -23.3
NS(=O)(=O)c1cccc(NC(=O)COC(=O)CCN2C(=O)c3ccccc3C2=O)c1 | 6.78
O=[N+]([O-])c1ccc(-c2ccc(/C=N/c3c(-c4ccco4)nc4ccccn34)o2)cc1 | 8.33
Cc1cccnc1Nc1nc(-c2ccccn2)cs1 | 4.03
Cc1c(N(C)C(=O)COc2ccc3ccccc3c2)c(=O)n(-c2ccccc2)n1C | 6.46
Cc1ccc(Cn2c(C(C)Nc3nc(-c4ccc(Cl)cc4)cs3)nc3cc(C(=O)NCCCO)ccc32)cc1 (stereo not drawn) | 17.6
CC1CCCC(C)N1C(=O)CSc1nc2ccccc2c(=O)[nH]1 (stereo not drawn) | 5
Cc1ccc2c(C)c(C(=O)N3CCC(N4CCC(C(=O)NC5CC5)CC4)CC3)oc2c1 | -59.1
O=C(O)CC(NC(=O)c1ccc2c(c1)OCO2)c1cccc([N+](=O)[O-])c1 (stereo not drawn) | 18.2
